Source: PubChem BioAssay AID720708 (National Center for Advancing Translational Sciences (NCATS), 2013)
The campaign covered roughly 360,000 compounds. About 660 (0.18%) were called active. This list was built around the results that the source calls inconclusive (neither active nor inactive); the mix of calls is not that of the screen. Calls follow the shape of the dose curve; as a rule, active = well fitted inhibition curve with a large enough effect; inconclusive = small, poorly fitted or top-dose-only effect; inactive = no such curve, though single readings can be large or run the other way. Potencies of inconclusive entries are left out as doubtful fits.

biological target: Rap guanine nucleotide exchange factor 4 (Homo sapiens) (UniProt Q8WZA2); test: qHTS for Antagonist of cAMP-regulated guanine nucleotide exchange factor 2 (EPAC2): primary screen; details: EPAC2 GEF exchange of Rap1B-BODIPY-GDP, fluorescence; activity, negative = inhibition: at 114 µM (top of the series) unless noted; also: nearly all actives have a fitted effect of over 45% in size
% is scaled to controls: 0 for no effect and ±100 for the full control effect; potency is read from the fitted curve at half-maximal effect; tags tell the direction and shape of the fitted curve.

Sequence of UniProt Q8WZA2 (Q8WZA2 whole entry, looked up): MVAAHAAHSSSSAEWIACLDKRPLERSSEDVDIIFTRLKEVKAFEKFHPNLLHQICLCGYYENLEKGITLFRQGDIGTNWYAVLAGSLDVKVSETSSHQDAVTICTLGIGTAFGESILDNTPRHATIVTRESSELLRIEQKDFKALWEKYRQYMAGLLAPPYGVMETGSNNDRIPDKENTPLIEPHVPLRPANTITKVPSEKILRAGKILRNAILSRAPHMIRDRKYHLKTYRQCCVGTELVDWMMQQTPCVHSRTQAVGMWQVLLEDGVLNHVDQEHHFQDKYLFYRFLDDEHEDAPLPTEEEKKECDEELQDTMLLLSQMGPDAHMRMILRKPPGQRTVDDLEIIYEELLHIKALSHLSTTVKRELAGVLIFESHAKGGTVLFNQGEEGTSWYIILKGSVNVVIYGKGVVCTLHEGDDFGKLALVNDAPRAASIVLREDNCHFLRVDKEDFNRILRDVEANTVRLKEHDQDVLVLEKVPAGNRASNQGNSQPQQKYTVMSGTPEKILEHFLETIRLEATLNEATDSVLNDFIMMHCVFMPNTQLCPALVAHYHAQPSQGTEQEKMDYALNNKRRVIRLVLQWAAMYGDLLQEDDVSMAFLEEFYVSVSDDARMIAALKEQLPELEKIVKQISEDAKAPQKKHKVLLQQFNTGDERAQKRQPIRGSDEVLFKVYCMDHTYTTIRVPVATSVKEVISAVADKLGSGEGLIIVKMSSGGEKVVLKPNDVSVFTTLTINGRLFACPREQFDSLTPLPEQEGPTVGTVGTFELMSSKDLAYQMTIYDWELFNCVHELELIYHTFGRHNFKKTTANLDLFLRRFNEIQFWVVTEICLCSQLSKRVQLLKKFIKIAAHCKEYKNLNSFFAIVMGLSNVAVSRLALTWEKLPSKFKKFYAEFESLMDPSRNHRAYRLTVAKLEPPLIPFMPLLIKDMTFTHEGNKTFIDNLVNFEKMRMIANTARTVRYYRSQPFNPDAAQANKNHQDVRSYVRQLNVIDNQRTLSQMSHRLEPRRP

Structure (SMILES)	Potency	activity, negative = inhibition
Cc1cn(CCC(=O)Nc2ccc(N3CCOCC3)cc2)c2ccccc12	inconclusive [inhibitor, single point]	
COc1ccc(NC(=O)C2(C)Cc3c(-c4cccc(C(F)(F)F)c4)ccnc3O2)cc1OC (stereo not drawn)	inconclusive [inhibitor, single point]	
COc1ccc(CNc2nc(-c3cccnc3)nn2S(C)(=O)=O)cc1		inactive: 4.62%
CC1=C(C)CC2C(C1)C(=O)c1ccc(Br)cc1S2(=O)=O (stereo not drawn)	inconclusive [inhibitor, full curve, poor fit]	
COc1ccc(CNC(=O)c2oc3ccc(S(=O)(=O)N4CCOCC4)cc3c2C)cc1	inconclusive [inhibitor, single point]	
COc1cccc(C(=O)Oc2ccc(/C=N/Nc3ccc(C(=O)O)cc3)cc2OC)c1	inconclusive [inhibitor, partial curve]	
CCCCCCCC/C=C\CCCCCCCC(=O)NCCO	inconclusive [inhibitor, partial curve]	
c1csc(-c2nc3ccccn3c2NC2CCCCC2)c1	inconclusive [inhibitor, full curve]	
C=CCN(c1ccc(C(=O)Nc2ccc3c(c2)OCO3)cc1)S(C)(=O)=O		inactive: -0.251%
CC(=O)c1c(C)[nH]c(C(=O)OCc2nnc(-c3ccc([N+](=O)[O-])cc3)o2)c1C	inconclusive [inhibitor, full curve, poor fit]	
COc1ccc(-c2ccc(C(C)=O)cc2)cc1[C@H]1[C@@H]2C=CCC[C@@]2(C)C(=O)N1Cc1ccccc1	inconclusive [inhibitor, single point]	
COc1cccc(C=NN(C)c2c([N+](=O)[O-])cc(C(F)(F)F)cc2[N+](=O)[O-])c1O	inconclusive [inhibitor, partial curve, poor fit]	
Cc1ccc(NC(=S)N(CCN2CCOCC2)Cc2cc3cc4c(cc3[nH]c2=O)OCCO4)cc1	inconclusive [inhibitor, full curve, poor fit]	
Cc1cc(OC(=O)c2ccc(Cl)cc2Cl)c([N+](=O)[O-])c(=O)[nH]1		inactive: -1.67%
COc1cccc(/C=N/Nc2ncccc2[N+](=O)[O-])c1OC	inconclusive [inhibitor, full curve, poor fit]	
O=C1CSC(=Nc2cccc(Cl)c2Cl)N1Cc1cccnc1	inconclusive [inhibitor, partial curve]	
COc1cccc(C(C(=O)NC2CCCCC2)N(C(=O)c2ccco2)c2ccccc2OC)c1 (stereo not drawn)		inactive: -14.4%
Cc1ccc2c(CN3CC(C)CC(C)C3)cc(=O)oc2c1 (stereo not drawn)	inconclusive [inhibitor, single point]	
C=CCn1c(CCc2cc(C(C)(C)C)c(O)c(C(C)(C)C)c2)n[nH]c1=S	inconclusive [inhibitor, partial curve]	
O=C(c1cc(C2CC2)nn1-c1ccccc1)N1CCN(c2ccccc2O)CC1		inactive: -5.75%
O=C1CSC(c2ccc(F)cc2)N1c1c(F)cccc1F (stereo not drawn)	inconclusive [inhibitor, partial curve]	

Structure (SMILES)	Potency	activity, negative = inhibition
CCN(C(=O)c1ccco1)C1C2CC3CC(C2)CC1C3 (stereo not drawn)	inconclusive [inhibitor, partial curve]	
CCCNC(=O)c1onc(CSc2ccc(Cl)cc2)c1C(=O)NCCC(C)C	inconclusive [inhibitor, full curve, poor fit]	
CCOC(=O)C(=O)C1=C(N2CCOCC2)/C(=C\c2ccc(F)cc2)CC1	inconclusive [inhibitor, single point]	
CCCCOC(=O)C1=C(C)NC(=O)NC1c1cc2c(cc1Br)OCO2 (stereo not drawn)	inconclusive [inhibitor, single point]	
CC(C)c1nc2cc(Cl)ccc2n(Cc2ccccc2)c1=O	inconclusive [inhibitor, partial curve]	
COC1=CC(=O)c2c(ccc3ncnc(N)c23)C1=O	active: 39.8 µM	
Cc1cc(NC(=O)CN(C)CCOc2ccccc2)ccc1Br	inconclusive [inhibitor, single point]	
O=C1c2cccnc2Oc2ccc(Cl)cc2N1Cc1ccc(F)cc1	inconclusive [inhibitor, partial curve]	
CC(C)NC(=O)N(C)C[C@H]1OCCCC[C@H](C)Oc2ccc(NS(=O)(=O)c3ccccc3)cc2C(=O)N([C@H](C)CO)C[C@H]1C		inactive: 4.45%
COc1cccc(-c2sc3ccc(OC)cc3c2C#CCC(C)O)c1 (stereo not drawn)	inconclusive [inhibitor, full curve, poor fit]	
Cc1cc2oc(=O)cc(CN(C)Cc3ccccc3)c2cc1Cl	inconclusive [inhibitor, partial curve]	
O=C(Nc1cccc(NC(=O)c2ccc3c(c2)OCO3)c1)c1ccccc1	inconclusive [inhibitor, single point]	
COc1ccccc1C(=O)NC(=O)COC(=O)c1cnc(C)cn1	inconclusive [inhibitor, single point]	
O=S(=O)(c1ccc(F)c2ccccc12)N1CCCCC1	inconclusive [inhibitor, single point]	
Cn1c(N)c(C(=O)COC(=O)Cc2ccc(Cl)c(Cl)c2)c(=O)n(C)c1=O	inconclusive [inhibitor, partial curve]	
Nc1c(-c2ccccc2)sc2ccc3ccccc3[n+]12	inconclusive [inhibitor, single point]	
CCOC(=O)n1c(=O)n(Cc2cccc(C)c2)c2ccccc21	inconclusive [inhibitor, single point]	
COc1ccc(C(C#N)N2N=C(C)CC2c2ccccc2)cc1OC (stereo not drawn)	inconclusive [inhibitor, full curve]	
Cn1c(/N=C/c2c(O)ccc3ccccc23)nc2ccccc21	inconclusive [inhibitor, single point]	
Cc1cc2c(cc1C)-n1nnnc1C(N(C)Cc1ccccc1)C(=O)N2 (stereo not drawn)	inconclusive [inhibitor, partial curve]	
O=C(c1cc(-c2ccc(Cl)s2)nc2ccccc12)N1CCOCC1	inconclusive [inhibitor, partial curve]	

Structure (SMILES)	Potency	activity, negative = inhibition
CN(Cc1cccc(F)c1)C(=O)c1ccccc1Sc1ccccc1C#N	inconclusive [inhibitor, partial curve]	
CCOC(=O)C1=C(C)NC(C)=C(C(=O)OCC)C1C(=O)OCC(=O)NCc1ccc(F)cc1	inconclusive [inhibitor, partial curve]	
Cc1cc(NC(=O)CS(=O)(=O)c2cn(Cc3cccc(Br)c3)c3ccccc23)no1	inconclusive [inhibitor, single point]	
COC(/C(=N/O)c1ccc(Cl)cc1)c1ccccc1 (stereo not drawn)	inconclusive [inhibitor, partial curve]	
COCCNC(=O)c1ccc2c3n(nc2c1)-c1ccc(C)cc1CO3		inactive: 2.15%
COc1cc(C=NNc2ccc(S(=O)(=O)Nc3ccccc3C(=O)O)cc2[N+](=O)[O-])ccc1O	inconclusive [inhibitor, partial curve]	
Cc1ccccc1S(=O)(=O)N1[C@@H](c2cccc(Cl)c2)C(C(=O)O)=CC[C@H]1c1ccc(Cl)cc1	inconclusive [inhibitor, single point]	
O=C1NN(c2ccccc2)C(=O)/C1=C/c1ccc(-c2ccc(C(=O)O)cc2)o1		inactive: 7.74%
N#CC(C(=O)NC1CC1)c1nc2ccccc2nc1N1CCCC1 (stereo not drawn)	inconclusive [inhibitor, single point]	
COc1ccc2c(c1)CCC1C2=NN(/C(C)=C/C(C)=O)C1c1cccc(F)c1 (stereo not drawn)	inconclusive [inhibitor, partial curve]	
COc1ccccc1C(CC(=O)N1CCCC1)c1ccc2c(c1)OCO2 (stereo not drawn)	inconclusive [inhibitor, single point]	
CC(=O)C1=C(C)N(Cc2ccccc2)C(=O)N[C@@H]1c1cccc(C(F)(F)F)c1	inconclusive [inhibitor, partial curve]	
COc1ccc([C@H]2CC(=O)C=C(c3ccc(C)cc3)C2)cc1	inconclusive [inhibitor, single point]	
O=C1CSC(=Nc2ccc(Cl)cc2)N1Cc1cccnc1	inconclusive [inhibitor, partial curve]	
Nc1cc(S(=O)(=O)Nc2ccccc2Cl)ccc1N1CCCCC1	inconclusive [inhibitor, partial curve]	
CCN(CC(=O)NCc1ccc(F)cc1)C(=O)c1cccnc1SC		inconclusive: -18.3% [inhibitor]
CC1(c2ccc3ccccc3c2)NC(=O)N(CC(=O)N2CCN(Cc3ccccc3)CC2)C1=O (stereo not drawn)		inconclusive: -12.2% [inhibitor]
CC1CCCN(CC(=O)Nc2cc(Cl)ccc2Oc2ccccc2)C1 (stereo not drawn)	inconclusive [inhibitor, partial curve]	
COc1ccc(N2CCN(C(=O)C(C)(C)Oc3ccc(Cl)cc3)CC2)cc1	inconclusive [inhibitor, full curve]	
CCc1nc2c(OCc3ccc(OC(F)F)cc3)cccn2c1N(C)C(=O)c1ccc(OC)cc1	inconclusive [inhibitor, full curve]	
COc1ccc(CNC(=O)COC(=O)c2cc(C)nc3ccccc23)cc1		inactive: 8.02%
